Measured values from the supplement of paper PMC9446081.
Out of some 39,000 compounds screened, about 220 (0.56%) showed activity. The list shows a part of the results.

system: Escherichia coli K-12 BW25113; experiment: relative growth (OD600 normalised to plate interquartile mean) (fraction); higher = less growth inhibition, active = 0.2 or less; conditions: 50 µM; LB; incubation time: overnight (16-24 h)
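Also: static incubation at 37 °C against the wild-type strain, values averaged over two biological replicates.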

SMILES | relative growth
OCC(CO)N[C@H]1C[C@](O)(CO)[C@@H](O)[C@H](O)[C@H]1O | inactive: 0.996
Cc1noc(C)c1S(=O)(=O)N(C)C[C@H]1Oc2ccc(NS(=O)(=O)c3cn(C)cn3)cc2CC(=O)N([C@@H](C)CO)C[C@@H]1C | inactive: 0.999
COc1ccc(NC(=O)Nc2ccc3c(c2)C(=O)N([C@H](C)CO)C[C@H](C)[C@@H](CN(C)C(=O)NC2CCCCC2)OCCCC[C@@H](C)O3)cc1 | inactive: 1
Cc1ccc(S(=O)(=O)Nc2ccc3c(c2)C(=O)N([C@@H](C)CO)C[C@@H](C)[C@@H](CN(C)C(=O)Nc2ccc(C(F)(F)F)cc2)OCCCC[C@@H](C)O3)cc1 | inactive: 0.991
C[C@@H]1CN([C@H](C)CO)C(=O)CCCn2cc(nn2)CO[C@H]1CN(C)S(C)(=O)=O | inactive: 0.99
CC(=O)O[C@H]1CC[C@]2(C)[C@H]3CC[C@@]4(C)[C@H](c5ccoc5)OC(=O)[C@H]5O[C@]54[C@]3(C)[C@H](OC(C)=O)C[C@H]2C1(C)C | inactive: 0.999
Cc1noc(C)c1S(=O)(=O)Nc1ccc2c(c1)C(=O)N([C@@H](C)CO)C[C@H](C)[C@H](CN(C)C(=O)Nc1ccccc1)O2 | inactive: 1.05
CC(C)NC(=O)N(C)C[C@@H]1Oc2ccc(NS(=O)(=O)c3ccc(Cl)cc3)cc2C(=O)N([C@@H](C)CO)C[C@@H]1C | inactive: 1.02
C[C@H](CO)N1C[C@H](C)[C@H](CN(C)C(=O)Nc2cccc3ccccc23)Oc2c(NC(=O)Nc3cccc4ccccc34)cccc2C1=O | inactive: 1.03
C=CCN1C[C@H](C(N)=O)CC1=O | inactive: 1.02
C[C@@H]1CN([C@@H](C)CO)C(=O)c2cccc(NC(=O)Nc3cccc4ccccc34)c2O[C@H]1CN(C)S(=O)(=O)c1ccccc1F | inactive: 1.03
COc1ccc(CN(C)C[C@H]2OCCCC[C@H](C)Oc3ccc(NC(=O)Nc4ccc(F)cc4)cc3C(=O)N([C@H](C)CO)C[C@@H]2C)cc1 | inactive: 0.929
Cc1ccc(S(=O)(=O)N(C)C[C@@H]2Oc3ccc(NC(=O)Nc4ccc(C(F)(F)F)cc4)cc3C(=O)N([C@H](C)CO)C[C@H]2C)cc1 | inactive: 1.03
C[C@H]1CN([C@@H](C)CO)S(=O)(=O)c2ccc(C#CCN(C)C)cc2O[C@H]1CN(C)C(=O)c1ccccc1F | inactive: 1
CSCC[C@H](NC(=O)[C@H](Cc1ccc(OS(=O)(=O)O)cc1)NC(=O)[C@@H](N)CC(=O)O)C(=O)NCC(=O)N[C@@H](Cc1c[nH]c2ccccc12)C(=O)N[C@@H](CCSC)C(=O)N[C@@H](CC(=O)O)C(=O)N[C@@H](Cc1ccccc1)C(N)=O | inactive: 1
CC(=O)N(C)C[C@@H]1Oc2ncc(C#CC(C)(C)O)cc2C(=O)N([C@@H](C)CO)C[C@@H]1C | inactive: 1.01
C[C@H]1CN([C@@H](C)CO)C(=O)Cc2cc(NC(=O)CCN3CCOCC3)ccc2O[C@@H]1CN(C)Cc1ccc(C(=O)Nc2ccccc2N)cc1 | inactive: 1.03
COc1ccc(NC(=O)N(C)C[C@@H]2Oc3ncc(C#C[C@H](C)O)cc3C(=O)N([C@H](C)CO)C[C@@H]2C)cc1 | inactive: 0.994
O=C(NN1C(=O)CSC1=S)c1ccco1 | inactive: 0.977

SMILES | relative growth
Cc1ccc(S(=O)(=O)Nc2cccc3c2O[C@H](CN(C)C(=O)Nc2cccc4ccccc24)[C@@H](C)CN([C@@H](C)CO)C3=O)cc1 | inactive: 0.889
C[C@@H]1CN([C@H](C)CO)C(=O)c2cc(NC(=O)Nc3ccc(F)cc3)ccc2O[C@@H](C)CCCCO[C@H]1CN(C)C(=O)NC1CCCCC1 | inactive: 1.01
Cc1cccc(S(=O)(=O)N2C[C@@H](O)COC[C@H]3O[C@@H](CC(=O)N4CCN(C)CC4)CC[C@@H]32)c1 | inactive: 1
O=C(C[C@H]1C=C[C@H](NS(=O)(=O)c2ccc(F)cc2)[C@@H](CO)O1)N1CCC(Cc2ccccc2)CC1 | inactive: 0.999
COc1cccc(S(=O)(=O)N(C)C[C@H]2Oc3ncc(-c4cccc(C(=O)N(C)C)c4)cc3C(=O)N([C@H](C)CO)C[C@@H]2C)c1 | inactive: 0.987
Cc1ccc(S(=O)(=O)N[C@@H]2C=C[C@H](CC(=O)NCCN3CCCCC3)O[C@H]2CO)cc1 | inactive: 1.02
C[C@@H]1CN([C@H](C)CO)C(=O)c2cc(NC(=O)Nc3ccc(C(F)(F)F)cc3)ccc2O[C@@H]1CN(C)CC1CCCCC1 | inactive: 0.965
C[C@](N)(Cc1ccc(O)cc1)C(=O)O | inactive: 0.995
COc1ccc(S(=O)(=O)Nc2ccc3c(c2)C(=O)N([C@H](C)CO)C[C@@H](C)[C@@H](CN(C)Cc2ccc(Cl)c(Cl)c2)O3)cc1 | inactive: 0.918
Cc1noc(C)c1NC(=O)Nc1ccc2c(c1)C(=O)N([C@H](C)CO)C[C@@H](C)[C@@H](CN(C)C(=O)Nc1ccc(C(F)(F)F)cc1)OCCCC[C@@H](C)O2 | inactive: 1.03
C[C@H](CO)N1C[C@H](C)[C@H](CN(C)S(=O)(=O)c2ccc(-n3cccn3)cc2)OCc2cnnn2CCCC1=O | inactive: 1.03
C[C@@H]1CN([C@H](C)CO)C(=O)c2cc(NC(=O)Nc3ccc(C(F)(F)F)cc3)ccc2O[C@@H](C)CCCCO[C@@H]1CN(C)S(=O)(=O)c1ccc(F)cc1 | inactive: 1.04
O=C(O)[C@H]1CCCNC1 | inactive: 0.991
CN1C(=O)/C(=C\NCc2ccccc2)C(=O)c2c1n(C)c(=O)n(C)c2=O | inactive: 1.01
CC(C)NC(=O)Nc1ccc2c(c1)CC(=O)N([C@@H](C)CO)C[C@@H](C)[C@@H](CN(C)S(=O)(=O)c1ccccc1)O2 | inactive: 0.984
C[C@@H]1CN([C@H](C)CO)C(=O)c2cccc(NC(=O)c3ccc(-c4nccs4)cc3)c2O[C@@H]1CN(C)Cc1ccc(Oc2ccccc2)cc1 | inactive: 1.03
C[C@@H]1CN([C@H](C)CO)S(=O)(=O)c2ccc(C#CCN(C)C)cc2O[C@@H]1CN(C)Cc1ccccn1 | inactive: 1
COc1ccc(S(=O)(=O)Nc2cccc3c2O[C@@H](CN(C)S(=O)(=O)c2cn(C)cn2)[C@H](C)CN([C@H](C)CO)C3=O)cc1 | inactive: 1
